{"source": "PubChem BioAssay AID1347073", "about": "(National Center for Advancing Translational Sciences (NCATS), 2019)", "note": "Out of some 45,000 compounds screened, about 200 (0.44%) were called active. Inconclusive results (about 7%) are left out. Calls come from the whole dose curve; as a rule, active = well fitted activation curve with a large enough effect; inconclusive = small, poorly fitted or top-dose-only effect; inactive = no such curve, though single readings can be large or run the other way. This is one part of the list."}
{"experiment": "qHTS of TDP-43 Inhibitors: NCGC Sytravon Library Screen; note: 0% is about no effect; nearly all actives have a fitted effect of over 55% in size", "settings": "yeast TDP-43 toxicity rescue, BacTiter-Glo growth, 24 h; series mostly up to 46.1 µM; growth rescue (activation): at the top concentration", "in_short": "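TDP-43-expressing yeast, pregrown in raffinose, seeded at OD600 0.02 in galactose medium with compound for 24 hr at 30 deg C. Growth read by BacTiter-Glo luminescence, so rescue of toxicity appears as activation.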"}
{"smiles": "CNC(=O)CSc1nnc(-c2cccnc2)n1-c1ccc(C)cc1", "growth rescue (activation)": "inactive: -13.7%"}
{"smiles": "COc1ccc(OC)c(CN2CCC(C(=O)N3CCN(c4ccccc4F)CC3)CC2)c1", "growth rescue (activation)": "inactive: -11.8%"}
{"smiles": "COCCCNCC(=O)Nc1ccc(OC(F)(F)F)cc1", "growth rescue (activation)": "inactive: 22.1%"}
{"smiles": "CCN(CC)CCn1c(=N)n(CC(O)COc2ccccc2)c2ccccc21", "note": "(centres undefined)", "growth rescue (activation)": "inactive: 11.8%"}
{"smiles": "CON1C(=O)C(=O)N(OC)C2CCCCCC21", "note": "(centres undefined)", "growth rescue (activation)": "inactive: -10.9%"}
{"smiles": "O=C(NCCC1=CCCCC1)c1ccc([N+](=O)[O-])cc1", "growth rescue (activation)": "inactive: 4.82%"}
{"smiles": "O=c1oc2ccccc2c(O)c1Cc1cc(Cl)c2cccnc2c1O", "growth rescue (activation)": "inactive: -1.04%"}
{"smiles": "CN(C)S(=O)(=O)c1cccc(NC(=O)CN2C(=O)NC3(CCc4ccccc4C3)C2=O)c1", "note": "(centres undefined)", "growth rescue (activation)": "inactive: -1.53%"}
{"smiles": "CC1CCCC/C1=N\\NC(=S)Nc1cccnc1", "note": "(centres undefined)", "growth rescue (activation)": "inactive: 0.902%"}
{"smiles": "C(=N\\Nc1nc(N2CCCC2)nc(N2CCCC2)n1)/c1cccnc1", "growth rescue (activation)": "inactive: 15.7%"}
{"smiles": "CN(C(=O)c1ccc(OC2CCN(CCc3ccccc3)CC2)cc1)C1CCCCC1", "growth rescue (activation)": "inactive: 0.0716%"}
{"smiles": "O=C(COC(=O)C1CCN(S(=O)(=O)c2cccs2)CC1)Nc1ccc(F)cc1Cl", "growth rescue (activation)": "inactive: 44.3%"}
{"smiles": "Cc1cc(C(=O)N/N=C/c2c3ccccc3cc3ccccc23)n[nH]1", "growth rescue (activation)": "inactive: -19.7%"}
{"smiles": "Cc1ccc(/C=C/C(=O)Nc2cc(=O)n(C)c(=O)n2C)o1", "growth rescue (activation)": "inactive: -6.69%"}
{"smiles": "Cc1cc(C)c(NC(=O)CSCc2c(C)noc2C)c(Cl)c1", "growth rescue (activation)": "inactive: 4.56%"}
{"smiles": "COc1cc(CC(=O)OCc2ccccc2F)cc(OC)c1OC", "growth rescue (activation)": "inactive: 22.6%"}
{"smiles": "CCC(O)(CC)C(=O)NN(C(=O)Nc1csc2c1CCCC2)c1ccccc1", "growth rescue (activation)": "inactive: 9.09%"}
{"smiles": "O=C1/C(=C\\c2ccc(O)cc2)SC(=S)N1Cc1ccccc1", "growth rescue (activation)": "inactive: -94.1%"}
{"smiles": "COc1cccc(NC(=O)CN2CCN(CC(=O)Nc3ccc(F)cc3)CC2)c1", "growth rescue (activation)": "inactive: 8.35%"}
{"smiles": "O=[N+]([O-])c1ccc(N2CCSCC2)cc1", "growth rescue (activation)": "inactive: 16.2%"}
{"smiles": "Cc1nnc(SCC(=O)NC(=O)NCCC(C)C)s1", "growth rescue (activation)": "inactive: -5.72%"}
{"smiles": "O=C(Nc1cccc2ccccc12)N(CCO)C1CCS(=O)(=O)C1", "note": "(centres undefined)", "growth rescue (activation)": "inactive: -27.2%"}
{"smiles": "O=[N+]([O-])c1cccc(-c2n[nH]c(=S)n2Cc2ccccc2)c1", "growth rescue (activation)": "inactive: 11.3%"}
{"smiles": "Cc1ccnc(NC(=O)c2cnc(Cl)c(Cl)c2)c1", "growth rescue (activation)": "inactive: 21.7%"}
{"smiles": "CC1CCN(C(=O)CS(=O)(=O)Cc2ccccc2)CC1", "growth rescue (activation)": "inactive: -4.71%"}
{"smiles": "Cc1ccc(N(CC(=O)NC2CCCC2)C(=O)c2nsc(Cl)c2Cl)cc1", "growth rescue (activation)": "inactive: 9.62%"}
{"smiles": "CCC(C)(C)NC(=O)C(c1ccc(F)cc1)N(CCOC)C(=O)CCC(=O)Nc1nccs1", "note": "(centres undefined)", "growth rescue (activation)": "inactive: 5.79%"}
{"smiles": "CCc1ccc(NC(=O)CSc2nnnn2-c2cccnc2)cc1", "growth rescue (activation)": "inactive: 13.6%"}
{"smiles": "COC(=O)c1cc(CNC(=O)C(C)NS(=O)(=O)c2ccc(C)c(C)c2)ccc1OC", "note": "(centres undefined)", "growth rescue (activation)": "inactive: 2.17%"}
{"smiles": "CN(C)CC(=O)Nc1ccc(Oc2ccc(Cl)cc2)cc1", "growth rescue (activation)": "inactive: -2.26%"}
{"smiles": "CN(C)c1ccc(/C=N/n2cnn(Cc3ccccc3Cl)c2=S)cc1", "growth rescue (activation)": "inactive: 5.71%"}
{"smiles": "Cc1ccc(C(c2cc(Cl)c3cccnc3c2O)N2CCN(C)CC2)cc1", "note": "(centres undefined)", "growth rescue (activation)": "inactive: -53.5%"}
{"smiles": "CCOC(=O)c1c(NC(=O)COc2ccc(OC)cc2)sc(C(=O)N(CC)CC)c1C", "growth rescue (activation)": "inactive: 17.2%"}
{"smiles": "CC(=O)Nc1ccc(S(=O)(=O)N2CCC(C(=O)c3ccc(F)cc3)CC2)cc1", "growth rescue (activation)": "inactive: 18.7%"}
{"smiles": "O=C(Nc1ccccc1C(F)(F)F)c1ncn[nH]1", "growth rescue (activation)": "inactive: 4.21%"}
{"smiles": "O=C(Nc1nc(-c2cc(F)ccc2F)cs1)C1=NN(c2ccccc2)C(=O)CC1", "growth rescue (activation)": "inactive: 3.02%"}
{"smiles": "O=[N+]([O-])c1cccc(/C=N/n2c(C3CCCCC3)n[nH]c2=S)c1", "growth rescue (activation)": "inactive: 11.1%"}
{"smiles": "Cc1c(NC(=O)CSc2ccccc2Cl)c(=O)n(-c2ccccc2)n1C", "growth rescue (activation)": "inactive: 3.5%"}
{"smiles": "COCC(=O)Nc1ccc([N+](=O)[O-])cc1C", "growth rescue (activation)": "inactive: 21.6%"}
{"smiles": "Cc1ccc(C(c2c(C)n(C)n(-c3ccccc3)c2=O)c2c(C)n(C)n(-c3ccccc3)c2=O)s1", "growth rescue (activation)": "inactive: 2.89%"}
{"smiles": "COCCOC(=O)C1=C(C)NC(=S)NC1/C=C/c1ccccc1", "note": "(centres undefined)", "growth rescue (activation)": "inactive: 4.57%"}
{"smiles": "FC(F)(F)c1ccccc1-n1c(CN2CCCCC2)n[nH]c1=S", "growth rescue (activation)": "inactive: -9.89%"}
{"smiles": "CN(C)c1ccc(NC(=S)c2ccccn2)cc1", "growth rescue (activation)": "inactive: 17.5%"}
{"smiles": "COc1ccc(NC(=O)CSc2nc3sc(C)cc3c(=O)n2C)cc1", "growth rescue (activation)": "inactive: 2.21%"}
{"smiles": "O=C(Nc1ncc(Cc2cccc(Cl)c2)s1)c1ccc([N+](=O)[O-])cc1", "growth rescue (activation)": "inactive: -15.9%"}
{"smiles": "CCN(CC)c1nc(-c2ccc(Cl)cc2)cc(C(F)(F)F)c1C#N", "growth rescue (activation)": "inactive: -24%"}
{"smiles": "COc1ccc(CC(=O)Nc2cc3oc4ccccc4c3cc2OC)cc1", "growth rescue (activation)": "inactive: -3.02%"}
{"smiles": "CN1C(=O)NC(c2ccccc2Cl)C2=C1CC(C)(C)CC2=O", "note": "(centres undefined)", "growth rescue (activation)": "inactive: -5.2%"}
{"smiles": "CCOc1cc(/C=N/NC(=O)C(C)Sc2ccccn2)ccc1O", "note": "(centres undefined)", "growth rescue (activation)": "inactive: 21.4%"}
{"smiles": "COc1ccc(CNC(=O)c2cc(-c3cc(C)ccc3O)n[nH]2)cc1", "growth rescue (activation)": "inactive: 8.7%"}
{"smiles": "C=CCOCCN(C)C1=NS(=O)(=O)c2cc([N+](=O)[O-])ccc21", "growth rescue (activation)": "inactive: 29.6%"}
{"smiles": "Cc1cc(NS(=O)(=O)c2ccc(NC(=O)COc3ccc(Cl)c(C)c3)cc2)no1", "growth rescue (activation)": "inactive: 14.9%"}
{"smiles": "Cc1nnc(SCC(=O)NNC(=O)c2ccccc2)n1-c1ccccc1", "growth rescue (activation)": "inactive: 11.1%"}
{"smiles": "Cc1ccc(-c2noc(C3CCCN(C(=O)c4cccc(Cl)c4)C3)n2)o1", "note": "(centres undefined)", "growth rescue (activation)": "inactive: 12.8%"}
